In all, about 310,000 compounds went through this assay and about 2,200 (0.71%) showed an effect of 50% or more. Effects have a minus sign here. This is one part of the list.
molecular target: human ether-à-go-go-related gene (hERG) potassium channel (human, UniProt Q12809); assay: primary screen, population patch clamp on CHO cells stably expressing hERG
Sequence (Q12809 whole entry, looked up): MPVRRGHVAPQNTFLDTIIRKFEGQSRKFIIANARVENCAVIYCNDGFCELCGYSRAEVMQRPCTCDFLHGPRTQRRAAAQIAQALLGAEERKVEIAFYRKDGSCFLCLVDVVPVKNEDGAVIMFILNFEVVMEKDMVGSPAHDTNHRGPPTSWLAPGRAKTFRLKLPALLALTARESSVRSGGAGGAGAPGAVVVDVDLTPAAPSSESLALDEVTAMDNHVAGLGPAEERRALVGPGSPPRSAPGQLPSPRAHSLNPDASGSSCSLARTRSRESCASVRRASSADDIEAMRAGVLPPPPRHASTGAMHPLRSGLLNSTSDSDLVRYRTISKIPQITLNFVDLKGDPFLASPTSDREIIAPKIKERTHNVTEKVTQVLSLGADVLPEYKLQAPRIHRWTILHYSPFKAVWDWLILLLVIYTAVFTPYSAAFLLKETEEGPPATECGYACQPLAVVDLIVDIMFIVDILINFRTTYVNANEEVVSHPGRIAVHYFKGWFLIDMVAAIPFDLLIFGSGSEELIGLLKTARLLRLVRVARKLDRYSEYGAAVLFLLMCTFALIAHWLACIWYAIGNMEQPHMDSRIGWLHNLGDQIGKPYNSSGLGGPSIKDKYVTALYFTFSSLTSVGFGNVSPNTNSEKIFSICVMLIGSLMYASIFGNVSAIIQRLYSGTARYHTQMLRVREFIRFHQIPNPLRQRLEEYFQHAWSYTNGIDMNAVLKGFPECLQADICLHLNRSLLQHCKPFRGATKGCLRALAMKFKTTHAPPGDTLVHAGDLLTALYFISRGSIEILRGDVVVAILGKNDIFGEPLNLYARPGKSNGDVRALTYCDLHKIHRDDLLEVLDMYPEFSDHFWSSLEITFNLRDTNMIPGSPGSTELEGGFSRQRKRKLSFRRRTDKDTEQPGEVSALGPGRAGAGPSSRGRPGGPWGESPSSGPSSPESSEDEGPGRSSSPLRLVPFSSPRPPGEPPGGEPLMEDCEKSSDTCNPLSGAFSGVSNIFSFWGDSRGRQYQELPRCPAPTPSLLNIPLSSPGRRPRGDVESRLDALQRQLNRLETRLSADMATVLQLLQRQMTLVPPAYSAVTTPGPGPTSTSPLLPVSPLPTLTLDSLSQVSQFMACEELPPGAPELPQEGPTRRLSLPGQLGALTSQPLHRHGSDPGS

Structure (SMILES)	hERG current change (%, negative = inhibition) at 1uM
CCN(Cc1nc2cc(Cl)ccc2c(=O)[nH]1)C(=O)COc1ccccc1Cc1ccccc1	3.97%
CN1CCN(CCCNC(=O)c2cc3c(=O)n(C)c4ccccc4c3s2)CC1	10.5%
CC(C)(C)c1ccc(/C=N/NC(=O)C2CCCC2)cc1	13.4%
Cc1ccc(-n2c(CNc3ccc(F)cc3)nnc2SCC(=O)N2CCCC2)cc1	5.65%
COc1ccc(C)cc1NC(=O)CNC(C)C(=O)Nc1ccc(C(C)=O)cc1 (stereo not drawn)	6.11%
Cc1ccc(NC(=O)Nc2ccccc2F)cc1S(=O)(=O)N1CCOCC1	14.4%
COc1ccc(Oc2cc(F)nc(N)n2)cc1	-6.97%
COC(=O)C(O)(CC(=O)Nc1ccc(Cl)cc1Cl)C(F)(F)F (stereo not drawn)	9.79%
COC(=O)C1=C(C(=O)OC)[C@@H]2N(C)c3ccccc3[C@@]23C[C@@H](CO)N(C(=O)C2CCC2)C3=N1	14.4%
Cc1ccc(S(=O)(=O)NC2(C(F)(F)F)NC(=O)N(CCc3ccccc3)C2=O)cc1 (stereo not drawn)	7.1%
O=C(NCCO)C1(c2ccccc2)CCCC1	13%
COC(=O)c1ccccc1NC(=O)c1nc2nc(C)cc(C(F)F)n2n1	5.34%
CC1CCC2(CC1)NC(=O)N(CC(=O)Nc1ccccc1-c1ccccc1)C2=O (stereo not drawn)	0.241%
O=C(CSc1nnc2ncccn12)N1CCCCCC1	9.65%
CC(C)c1cccc(C(C)C)c1NC(=O)COC(=O)c1ccc(OCC(=O)Nc2cccc(C(F)(F)F)c2)cc1	10.9%
O=C(NCCC1=CCCCC1)C(c1ccccc1)c1ccccc1	6.73%
CCCCn1c(N)c(N(CC(C)C)C(=O)C2CCN(S(=O)(=O)c3ccc(C)c(C)c3)CC2)c(=O)[nH]c1=O	-4.06%
Cc1nnc(SCC(=O)Nc2ccc([N+](=O)[O-])cc2)n1C	11.4%
C/C(=N\NC(=O)c1cc(-c2cccc([N+](=O)[O-])c2)n[nH]1)c1ccc(F)cc1	14.1%
CCOC(=O)c1cc(-c2ccc(OC)cc2)nc2c1c(C)nn2CCC#N	11.6%
CCCCNC(=S)N/N=C/C1=CCC2CC1C2(C)C (stereo not drawn)	11.1%
CCOc1cccc(CNc2ccc(O)cc2)c1OCc1ccccc1Cl	20.2%
CSC1=NCCN1C(=O)c1ccc(S(=O)(=O)N(C)C)cc1	11.7%
C=CCN(CC=C)C(=S)NC(=O)c1ccc(OC)c(Br)c1	16%

Reference: PMC4336329 (PLoS ONE, 2015)
